Measured values taken from PubChem BioAssay AID1346378 (National Center for Advancing Translational Sciences (NCATS), 2018).
Values joined by “and” are separate entries in the source; they are usually repeats but may differ in a detail not shown here. Identical values can stand only once. In all, about 420,000 compounds went through this assay and about 540 (0.13%) were called active. This list was built around the results that the source calls inconclusive (neither active nor inactive); the mix of calls is not that of the screen. Cut-off read from the data, not from the text of the source: active = activity change below about -50%; inconclusive = mostly about -30% to -49%; inactive = weaker than that.

Each compound was assayed against Phosphatidylinositol 4-kinase type 2-alpha (Homo sapiens) (UniProt Q9BTU6) (assay: qHTS for small molecular inhibitors of PI4K2A). Conditions: purified PI4K2A, ADP-Glo luminescence, 1 h; at 76.9 µM; stronger effect = lower value.
Chain of UniProt Q9BTU6 (Q9BTU6 whole entry, looked up): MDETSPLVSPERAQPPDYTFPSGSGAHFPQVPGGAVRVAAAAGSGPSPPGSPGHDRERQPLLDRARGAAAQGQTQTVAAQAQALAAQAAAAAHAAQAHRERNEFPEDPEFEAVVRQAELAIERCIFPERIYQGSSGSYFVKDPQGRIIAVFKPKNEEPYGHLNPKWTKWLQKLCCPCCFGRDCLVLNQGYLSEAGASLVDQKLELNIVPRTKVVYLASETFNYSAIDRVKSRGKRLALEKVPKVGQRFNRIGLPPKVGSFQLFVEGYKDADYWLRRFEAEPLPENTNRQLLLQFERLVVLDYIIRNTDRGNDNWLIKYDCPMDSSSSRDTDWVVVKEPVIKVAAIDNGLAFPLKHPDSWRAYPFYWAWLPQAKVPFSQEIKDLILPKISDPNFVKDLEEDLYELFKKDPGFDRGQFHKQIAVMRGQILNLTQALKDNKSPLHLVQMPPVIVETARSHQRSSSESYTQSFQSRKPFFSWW
From the text: The phosphatidylinositol 4-phosphate (PI4P) is emerging as a key regulator of lipid transfer in ER-membrane contact sites. The four different phosphatidylinositol 4-kinase (PI4K) enzymes generate PI4P in different membrane compartments supporting distinct cellular processes many of which are crucial for the maintenance of cellular integrity but also hijacked by intracellular pathogens. The goal of this screening project is to search for small molecular inhibitors of PI4K2A based on a high throughput screening strategy.The ADP-Glo assay was used as a starting point to develop a miniaturized version for HTS applications. To implement the HTS screen, the PI4K ADP-Glotrade mark Kinase assay (Promega, V9102) was miniaturized for the 1536-well format used at NCGC.
For the robotic screening, the ADP-Glo assay using the ADP-Glotrade mark Kinase Assay kit from Promega was miniaturized and optimized on 1536-well white solid bottom plates (Greiner Bio-one). The substrate, 1.2 mM PI, prepared in the assay buffer (40mM Tris pH7.5, 20mM MgCl2, 1mM EGTA, 0.4% Triton X-100, 0.5mM DTT, 0.5mg/ml BSA) and PI4K2A enzyme, diluted also in the assay buffer to 4ug/mL, were dispensed onto the plates in equal volumes (1microl/well), pinned with 23 nL/well tested compounds or control followed by dispensation of 1microl/well 300microM ATP. The plates were incubated for one hour. Then, 2 µL/well of ADP-Glo reagent was added and incubated for 40 minutes. Next, 4microL/well of Kinase Detection Buffer was added to the plates and incubated for additional 40 minutes. All incubation steps were performed at ambient temperature. The resulting luminescence signal was measured on Viewlux plate reader (PerkinElmer). Adenosine, a partial non-specific inhibitor, was used as a positive control at 100microM final concentration to assess the assay's quality and plate-to-plate reproducibility. We also used "no enzyme" control to gauge the assay's maximal potential inhibition (IC100).
For Nc1c(C(=O)NCc2ccco2)c2nc3ccccc3nc2n1Cc1ccc(F)cc1, the activity change, negative = inhibition was inconclusive: -32.7%.
For CNC(=O)Oc1ccc(-c2cn3cc(C)ccc3n2)cc1, the activity change, negative = inhibition was inconclusive: -45.3%.
In the case of CCN(CC)C(=O)[C@@H]1C=C2c3cccc4[nH]cc(c34)C[C@H]2N(C)C1, the activity change, negative = inhibition is reported as inconclusive: -62.9%.
In the case of CCCCn1c(=O)c(C(=O)Nc2ccccc2)c(O)c2ccccc21, the activity change, negative = inhibition is reported as inactive: -0.627%.
In the case of COC(=O)Cn1cc(C=C2C(=O)NC(=O)NC2=O)c2ccccc21, the activity change, negative = inhibition is reported as inconclusive: -30.6%.
Cc1cccc(N2C(=O)NC(=O)/C(=C\c3cccn3-c3ccc(Cl)cc3)C2=O)c1 was tested, and the activity change, negative = inhibition was active: -50.2%.
CC1=NN(c2ccccc2)C(=O)/C1=C/c1c(O)[nH]c(=O)[nH]c1=O was tested, and the activity change, negative = inhibition was inconclusive: -36.9%.
For Cc1ccc(N2C(=O)NC(=O)/C(=C/C=C/c3ccco3)C2=O)cc1, the activity change, negative = inhibition was inconclusive: -42%.
CN(C)C(=O)Oc1ccc(-c2cn3cc(Cl)ccc3n2)cc1 was tested, and the activity change, negative = inhibition was inconclusive: -40.3%.
For O=C1NC(=S)NC(=O)C1=Cc1cccn1-c1ccc(O)cc1, the activity change, negative = inhibition was inconclusive: -36.6%.
For COc1cc2c(cc1OC)-c1c(OC)c(OC)cc3c1[C@H](C2)N(C)CC3, the activity change, negative = inhibition was inconclusive: -41.3%.
For C=C1C(=O)O[C@@H]2C[C@@H](C)[C@@H]3C=CC(=O)[C@@]3(C)[C@@H](OC(=O)CC(=O)O[C@H]3[C@@H]4C(=C)C(=O)O[C@@H]4C[C@@H](C)[C@@H]4C=CC(=O)[C@]43C)[C@H]12, the activity change, negative = inhibition was active: -69.9%.
For O=C1C(=O)c2ccccc2-c2ccccc21, the activity change, negative = inhibition was inconclusive: -49.6%.
With Cc1ccc(S(=O)(=O)Oc2ccccc2C=C2C(=O)N(C)C(=O)N(C)C2=O)cc1 the activity change, negative = inhibition was inactive: -3.5%.
Cc1c2ccncc2c(C)c2c1[nH]c1ccccc12 was tested, and the activity change, negative = inhibition was inactive: 2.4% and inactive: 2.79%.
With Nc1ccccc1C(=O)OCC(=O)c1ccc2c(c1)OCCO2 the activity change, negative = inhibition was inconclusive: -31.9%.
CCOc1ccc(-c2cc(C)[n+](CCc3ccc(OC)c(OC)c3)c(-c3ccc(OCC)cc3)c2)cc1 was tested, and the activity change, negative = inhibition was inactive: 9.6%.
With CN1CC[C@@]2(C)c3cc(O)ccc3N(C)[C@@H]12 the activity change, negative = inhibition was inconclusive: -33.8% and inconclusive: -34.8%.
O=C1NC(=O)C(Sc2ccccc2[N+](=O)[O-])C(=O)N1 was tested, and the activity change, negative = inhibition was inconclusive: -49.9%.
For COc1ccc(/C=C2\C(=O)NC(=S)N(C)C2=O)cc1C, the activity change, negative = inhibition was inconclusive: -35.3%.
O=C1NC(=O)N(Cc2ccccc2)C(=O)/C1=C/C=C/c1ccco1 was tested, and the activity change, negative = inhibition was inconclusive: -40.1%.
O=C(N/N=C/c1c(O)n(C2CCCCC2)c(=S)[nH]c1=O)c1ccccc1 was tested, and the activity change, negative = inhibition was inactive: -5.78%.
With Cc1cccc(N2C(=O)NC(=O)/C(=C\c3cnn(-c4ccccc4)c3)C2=O)c1 the activity change, negative = inhibition was inconclusive: -48.2%.
For C=CCN1C(=O)NC(=O)/C(=C/c2ccc(OC)c(COc3ccc(NC(C)=O)cc3)c2)C1=O, the activity change, negative = inhibition was inconclusive: -40.3%.
CCN1/C(=C/C=C/C2=[N+](CC)c3ccccc3C2(C)C)C(C)(C)c2ccccc21 was tested, and the activity change, negative = inhibition was inconclusive: -37.8%.
In the case of O=C1NC(=S)N(c2ccccc2)C(=O)/C1=C/c1ccco1, the activity change, negative = inhibition is reported as inconclusive: -39.7%.
For O=C1NC(=O)N(c2ccccc2F)C(=O)/C1=C/c1ccc(Sc2nc3ccccc3[nH]2)o1, the activity change, negative = inhibition was inconclusive: -47.5%.
For C=CCN1C(=O)NC(=O)/C(=C/c2ccc(OCC(=O)Nc3ccc(C)cc3)cc2)C1=O, the activity change, negative = inhibition was active: -53.5%.
With C=C1C(=O)O[C@@H]2C[C@@H](C)[C@H]3C=CC(=O)[C@]3(O)C[C@@H]12 the activity change, negative = inhibition was inconclusive: -34.4%.
For CNc1ccc2oc(C[C@H]3O[C@@]4(CC[C@H]3C)O[C@H]([C@H](C)C(=O)c3ccc[nH]3)[C@H](C)C[C@H]4C)nc2c1C(=O)O, the activity change, negative = inhibition was inconclusive: -40.6%.
CN1CC[C@@]2(C)c3cc(O)ccc3N(C)C12 (stereo not given in full) was tested, and the activity change, negative = inhibition was inconclusive: -36.3%.
CCCCCn1c(=O)c(C(=O)Nc2cc(C)ccn2)c(O)c2ccccc21 was tested, and the activity change, negative = inhibition was inactive: 2.12%.
For O=C1NC(=O)C(=Cc2ccc3ccccc3c2)C(=O)N1, the activity change, negative = inhibition was inconclusive: -38.7%.
In the case of O=C(COc1ccccc1)N1CCN(Cc2c[nH]c3ccccc23)CC1, the activity change, negative = inhibition is reported as inactive: 4.24%.
For CC[n+]1c(/C=C/C=C/c2ccc(N(C)C)cc2)sc2ccccc21, the activity change, negative = inhibition was inconclusive: -42.5%.
In the case of CN1C(=O)NC(=O)/C(=C/c2ccc([N+](=O)[O-])o2)C1=O, the activity change, negative = inhibition is reported as inconclusive: -33.1%.
COc1ccc(OC)c(N2C(=O)/C(=C/c3ccco3)C(=O)NC2=S)c1 was tested, and the activity change, negative = inhibition was inconclusive: -35.3%.
Cc1ccc(OCCOc2cccc(C=C3C(=O)NC(=O)NC3=O)c2)c(C)c1 was tested, and the activity change, negative = inhibition was inconclusive: -33.9%.
In the case of CC(C)N1C(=O)/C(=C/C=C/c2ccco2)C(=O)N(Cc2ccco2)C1=O, the activity change, negative = inhibition is reported as active: -58.8%.
For O=C1NC(=S)NC(=O)C1=Cc1ccc2c(c1)CCN2CCCCl, the activity change, negative = inhibition was inconclusive: -39.8%.
